In all, about 52,000 compounds went through this assay and about 1,700 (3.3%) were called active. Rule as the data show it: active = survival mostly below about 52% (no sharp cut-off); inactive = mostly above about 56%. This is one part of the list.

We go through 89 molecules from PubChem BioAssay AID463173 (ICCB-Longwood Screening Facility, Harvard Medical School, 2010).

The test system of the assay is Wild type. The experiment in a line: growth inhibition of S. aureus wild type versus tarO mutant, primary screen, teichoic acid synthesis inhibitors, RN4220, OD600 (AID 463173). The note with it: S. aureus RN4220 wild type/DeltatarO growth, OD600, 18 h, hits give low values, screened at 18.75 µg/mL (by protocol).
As for `COC(=O)C(NC(=O)CCc1c(C)nc2cc(-c3cccc(F)c3)nn2c1C)C(C)C` (centres undefined), the survival is inactive: 80%.

With `Cc1ccc2c(=O)cc(C(=O)Nc3ccc(S(=O)(=O)N4CCCCC4)cc3)oc2c1`, the survival is inactive: 87%.

As for `COC(=O)c1ccccc1NC(=O)CCC(=O)N1CC(C)Sc2ccccc21` (centres undefined), the survival is inactive: 79%.

In the case of `CCOc1ccc(CNC(=O)Nc2ccc3c(c2)N(C)C(=O)c2ccccc2S3)cc1`, the survival is inactive: 90%.

As for `COc1ccc(NC(=O)C2CCCN(c3cnccn3)C2)c(OC)c1` (centres undefined), the survival was inactive: 113%.

`CCC(Cc1ccccc1)NC(=O)CCS(=O)(=O)c1cc2c(cc1Cl)NC(=O)CO2` (centres undefined): the survival was inactive: 83%.

Take `CCC(C)n1c(=N)c(C(=O)NC2CCCC2)cc2c(=O)n3ccccc3nc21` (centres undefined): the survival is inactive: 76%.

Turning to `Cc1ccc(NC(=O)CSc2cn(CC(=O)N3CCOCC3)c3ccccc23)cc1Cl`, the survival was inactive: 88%.

On to `Cc1ccc(NC(=O)CN2C(=O)CSc3ccc(S(=O)(=O)N(C)C)cc32)c(C)c1`, for which the survival was inactive: 72%.

Regarding `Cn1c(=O)c2nc3ccc(NC(=O)C(F)(F)F)cc3nc2n(C)c1=O`, the survival is inactive: 73%.

On to `Cc1ccc2c(c1)C(c1ccccc1)N(C(=O)c1ccc(S(=O)(=O)N3CCCC3)cc1)CC(=O)N2` (centres undefined), for which the survival is inactive: 79%.

Turning to `COc1ccc2sc(N(Cc3cccnc3)C(=O)c3cccs3)nc2c1`, the survival is inactive: 64%.

In the case of `Cc1ccc(-n2ncc3c(NC4CCCC4)ncnc32)cc1`, the survival was inactive: 87%.

Turning to `CCOC(=O)/C(C#N)=C/c1ccc(-c2ccccc2)o1`, the survival was inactive: 81%.

Regarding `O=S(=O)(c1ccccc1)c1nnn2c1nc(N1CCN(c3ccccc3)CC1)c1cc(Cl)ccc12`, the survival was inactive: 87%.

In the case of `COc1ccc2sc(N(Cc3cccnc3)C(=O)C3COc4ccccc4O3)nc2c1` (centres undefined), the survival was inactive: 82%.

In the case of `CCCn1cc(S(=O)(=O)c2ccccc2)c(=O)c2cc(F)c(N3CCCCCC3)cc21`, the survival is inactive: 80%.

As for `O=C(Cn1cc2c(n1)CCCC2)Nc1cc(C(F)(F)F)ccc1Cl`, the survival was inactive: 87%.

Consider `Cc1cc(C)cc(NC(=O)c2sc3nc4n(c(=O)c3c2C)N=C(c2ccc(F)cc2)CS4)c1`, for which the survival was inactive: 135%.

Take `Cc1nc(SCc2ccccc2Cl)c(C#N)c(C)c1C`: the survival was active: -2%.

In the case of `O=C(Nc1ccc2nc(SCCOc3ccccc3Cl)sc2c1)c1ccco1`, the survival was inactive: 41%.

Consider `CCc1cccc(NC(=O)CSc2n[nH]c(-c3ccccc3Cl)n2)c1`, for which the survival was inactive: 87%.

With `Cc1nnc(N2CCN(c3cccc(Cl)c3)CC2)c2c1nnn2Cc1ccc(F)cc1`, the survival is inactive: 85%.

Take `COc1cccc(-c2nn(C)c3sc(C(=O)NCCc4cccc(C)c4)cc23)c1`: the survival is inactive: 139%.

With `COc1ccc(C)cc1NC(=O)c1c(C(=O)Nc2cccc(C)c2C)sc2nc(C)cc(=O)n12`, the survival is inactive: 84%.

Consider `CCCNC(=O)Cn1ncc2c3ccccc3n(CCC)c2c1=O`, for which the survival is inactive: 133%.

Consider `CCOC(=O)C1CCCN(C(=O)Cn2ncc3c(C)n(Cc4ccc(F)cc4)c(C)c3c2=O)C1` (centres undefined), for which the survival is inactive: 126%.

Regarding `CCOc1ccc(OCC)c(NC(=O)c2cnn(-c3ccc(F)cc3)c2C2CCN(C(=O)OC(C)(C)C)CC2)c1`, the survival was active: 14%.

`C=CCn1c(C)c(/C=C/C2=CCN(C)CC2)c2ccccc21`: the survival was inactive: 112%.

Take `CC1C(=O)OC(c2ccccc2)C(C)(C)C1=O` (centres undefined): the survival was inactive: 118%.

Regarding `CCOc1ccc2c(c1)c(=O)c(C(=O)c1ccc3c(c1)OCO3)cn2Cc1cccc(F)c1`, the survival was inactive: 91%.

Take `COc1ccc(-n2ccnc(NCc3cccs3)c2=O)cc1`: the survival is active: -3%.

As to `CCOc1ccc(-n2c(C)nc3cc(C(=O)NCc4ccc(C)cc4)ccc32)cc1`, the survival was inactive: 99%.

Take `Cc1ccc2[nH]c(=O)c(CN(CCCO)C(=O)NC3CCCCC3)cc2c1`: the survival is inactive: 104%.

As for `COc1ccc(-c2ccc(-c3noc(-c4cc(OC)cc(OC)c4)n3)c(OC)n2)cc1`, the survival was inactive: 49%.

For the molecule `CCOc1ccc(-c2nnc(SCC(=O)Oc3ccccc3)o2)cc1`, the survival was inactive: 81%.

With `Cc1ccc(C(=O)Nc2nnc(S(=O)(=O)N(C)Cc3ccc(F)cc3)s2)cc1`, the survival is inactive: 47%.

In the case of `CCn1c(=O)cc(SCC(=O)Nc2cc(Cl)ccc2OC)c2ccccc21`, the survival is inactive: 66%.

With `CC1CCCN(c2nc(-c3ccccc3O)nc3ccccc23)C1` (centres undefined), the survival was active: -3%.

Consider `CCOc1cccc(C(=O)Nc2ccc(-c3nc4cc(C)cc(C)c4o3)cc2)c1`, for which the survival was inactive: 82%.

Turning to `CCc1ccccc1NC(=O)Cn1nnc(C(=O)Nc2ccc(OC)c(OC)c2)c1N`, the survival was inactive: 76%.

Take `CCOC(=O)c1ccccc1NC(=O)c1nn(-c2ccc(C)cc2)c(=O)n(C)c1=O`: the survival is inactive: 127%.

As to `CCc1ccc(S(=O)(=O)N2CCN(c3ccc(Cl)c(Cl)c3)CC2)cc1`, the survival was inactive: 113%.

Turning to `Cc1cccc(NC(=O)c2oc3ccc(S(=O)(=O)N(C)C4CCCCC4)cc3c2C)c1C`, the survival is inactive: 126%.

As for `CCCCN(Cc1ccco1)C(=O)c1cc2c(s1)-c1c(C)cccc1OC2`, the survival is active: 13%.

For the molecule `Cc1cccc(OCCOCCn2c(-c3ccc(Cl)cc3)nc3ccccc3c2=O)c1C`, the survival was inactive: 67%.

Regarding `Cc1c(NC(=O)C(F)(F)F)ccc2nc3c(=O)n(C)c(=O)n(C)c3nc12`, the survival was inactive: 85%.

On to `COc1c(Cl)cc(Cl)cc1/C=C(\C#N)c1nc(-c2ccc(Cl)cc2)cs1`, for which the survival was inactive: 148%.

With `CCOCCCNC(=O)Cn1cc2c(n1)-c1c(oc(C(=O)N3CCCC3)c1C)CC2`, the survival is inactive: 85%.

`CCc1ccccc1NC(=O)c1cnn(-c2ccc(F)cc2)c1C1CCNCC1`: the survival was inactive: 73%.

As for `COc1ccc(-n2ncc(C(=O)NCCCN3CCCCC3)c2C2CCN(C(=O)OC(C)(C)C)CC2)cc1`, the survival is inactive: 69%.

As for `COc1ccc(-c2cc(-c3ccc4c(c3)NC(=O)CO4)nc3c2COc2ccc(C)cc2-3)cc1`, the survival was inactive: 77%.

For `Cc1ccc(C(C)C)c(OCCCn2c(=O)oc3ccc(C)cc32)c1`, the survival was active: -10%.

Consider `Cc1cc(C)c(S(=O)(=O)N2CCC(N3CCN(Cc4ccc(F)cc4)C(=O)C3=O)CC2)c(C)c1`, for which the survival was inactive: 75%.

Regarding `CC(C)c1ccc(NC(=O)c2cnn3c(C(F)F)cc(-c4ccccc4)nc23)cc1`, the survival was inactive: 83%.

`Cc1ccccc1NC(=O)c1ccc(F)c(S(=O)(=O)N2CCc3ccccc3C2)c1`: the survival is inactive: 55%.

Turning to `COC(=O)Cn1ccc2cc(S(=O)(=O)N3CCCCC3)ccc21`, the survival is inactive: 95%.

For `Cc1ccc(C)c(N2CCN(C(=O)C3CCC(CNS(=O)(=O)c4ccc(Br)s4)CC3)CC2)c1` (centres undefined), the survival was inactive: 76%.

With `O=C(O)COc1ccccc1C1Nc2ccccc2-c2nnc(SCc3ccc(Cl)cc3)nc2O1` (centres undefined), the survival is inactive: 68%.

Take `COc1cccc(NC(=O)Cn2c(=O)n(CCCCC(=O)NCc3ccc4c(c3)OCO4)c(=O)c3ccccc32)c1`: the survival was inactive: 92%.

Take `CCOc1ccccc1C(=O)Nc1cc(-c2nc3cccnc3s2)ccc1C`: the survival was inactive: 67%.

As to `CCC(Sc1ncnc2sc3c(c12)CCCC3)C(=O)OCC(C)C` (centres undefined), the survival is active: -3%.

Take `CCOC(=O)N1CCC(NC(=O)c2cnn(-c3ccc(C)cc3)c2C2CCN(C(=O)OC(C)(C)C)CC2)CC1`: the survival is inactive: 69%.

Regarding `COc1ccc(-n2c(SCc3nc(-c4ccc(Cl)cc4)no3)nnc2-c2ccncc2)cc1`, the survival was inactive: 77%.

`COc1ccc(Nc2oc(-c3ccc(COc4ccccc4)o3)nc2C#N)cc1`: the survival is inactive: 116%.

`N#Cc1ccc(NC(=O)c2ccc3c(c2)nnn3C2CCCC2)cc1`: the survival is inactive: 134%.

On to `CCCS(=O)(=O)N1CC(=O)N(c2cc(C)cc(C)c2)C(C)(C(=O)NC2CCCCCC2)C1` (centres undefined), for which the survival was inactive: 81%.

For `Oc1cccc(Nc2cc(-c3ccccc3)ncn2)c1`, the survival was inactive: 71%.

For the molecule `CC(C)(C)C(=O)Nc1ccc2nc(SCCOc3ccccc3Cl)sc2c1`, the survival was inactive: 99%.

In the case of `CCOc1ccc(-c2cc(CCCC(=O)NCCc3ccc(OC)c(OC)c3)no2)cc1`, the survival is inactive: 125%.

Regarding `Cc1ccc(NC(=O)CCc2c(C)nc3ncnn3c2C)cc1Cl`, the survival was inactive: 75%.

Turning to `Cc1ccccc1NC(=O)Cn1nnc(C(=O)NCc2cccs2)c1N`, the survival is inactive: 100%.

For the molecule `Cc1cccc(NC(=O)CN2C(=O)CC(c3ccccc3)Sc3ccccc32)c1` (centres undefined), the survival was inactive: 77%.

For the molecule `CC(CNC(=O)c1csc2c1CCCCC2)c1ccccc1` (centres undefined), the survival was active: 0%.

For `CCc1ccc(NC(=O)Cn2nnc(C(=O)Nc3ccc(F)cc3)c2N)cc1`, the survival was inactive: 124%.

Regarding `O=C(Nc1cccc(O)c1)c1cc(-c2ccccc2F)no1`, the survival was inactive: 89%.

As for `CCc1ccc(NS(=O)(=O)c2ccc(NC(=O)N3CCCC3)cc2)cc1`, the survival is inactive: 78%.

Turning to `Cc1ccc(C)c(CSc2cn(CCNC(=O)c3cccs3)c3ccccc23)c1`, the survival was inactive: 78%.

Turning to `Cc1ccc(CSc2nc3cc(C(=O)NC4CCCC4)ccc3c(=O)n2Cc2ccccc2)cc1`, the survival was inactive: 65%.

Regarding `O=C(NCc1cccc(Cl)c1)c1ccc2c(Cl)c3c(nc2c1)CCCC3`, the survival was inactive: 66%.

Turning to `COc1ccc(CCN2C(=O)N(c3ccc(C)cc3)C(=O)C2CC(=O)Nc2ccc(OC)cc2)cc1` (centres undefined), the survival is inactive: 76%.

On to `COc1cc(NC(=O)c2cc(S(=O)(=O)N3CCC(C)CC3)cn2C)cc(OC)c1OC`, for which the survival is inactive: 74%.

Turning to `CCOC(=O)C1CCCN(C(=O)Cn2ncc3c4ccccc4n(C)c3c2=O)C1` (centres undefined), the survival was inactive: 118%.

In the case of `O=C(CSc1ncc(CO)n1Cc1ccc(F)cc1)NCc1ccco1`, the survival was inactive: 134%.

Take `COc1cc(O)ccc1-c1nc2cc(C)ccn2c1Nc1ccccc1C`: the survival is inactive: 73%.

Consider `CC(C)(O)C1Cc2cc(/C=C/C(=O)O)c(O)cc2O1` (centres undefined), for which the survival is inactive: 97%.

Consider `O=C(Nc1cccc(F)c1)C1CCN(S(=O)(=O)c2ccc3[nH]c4c(c3c2)CCCCC4)CC1`, for which the survival was inactive: 68%.

Regarding `C=CCC1N(c2ccccc2)C(=O)C2C(C(=O)O)C3C=CC21O3` (centres undefined), the survival is inactive: 112%.

On to `COc1ccc(NC(=O)CSc2nc3nc(C)cc(C)n3n2)cc1OC`, for which the survival was inactive: 72%.
